The supplement of paper PMC10037445
The full ranking holds about 2,900 compounds; the median of “NF-kB SEAP reporter activity, fold change vs agonist alone” is about 0.99, and the highest 2% start at about 2.6. This is one part of the list.

Experiments:
[1] = test system: RAW-Dual; assay: NF-kB SEAP reporter activity, fold change vs agonist alone; cytotoxicity flag (confluency mask): not cytotoxic; higher = enhanced NF-kB activity
Outline: (§1)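 RAW-Dual macrophages were seeded in DMEM at 50,000 cells/well in 384-well plates, given 50 nL of library stock by pin tool, and given a PRR agonist 1 h later. Plates were held at 37 °C, 5% CO2 for 20 hours, after which supernatant was read for IRF by QuantiLuc luminescence and for NF-κB by QuantiBlue absorbance at 620 nm. Reporter activity is expressed as fold change over wells that received agonist alone. A well was called cytotoxic when IncuCyte confluency fell below 70% of agonist controls in both mask sets.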

[2] = test system: RAW-Dual; assay: NF-kB SEAP reporter activity, fold change vs agonist alone; higher = enhanced NF-kB activity; conditions: library stock concentration (final ~1000-fold dilution): 10 mM, cytotoxicity flag (confluency mask): not cytotoxic
Outline: as §1

[3] = agonist: ODN 1826 (TLR9) 0.5 ug/mL
[4] = agonist: Pam2CSK4 (TLR2/6) 0.1 ug/mL
[5] = agonist: Pam3CSK4 (TLR2/1) 0.1 ug/mL

| SMILES | NF-kB SEAP reporter activity ([1]; agonist: LPS (TLR4) 0.1 ug/mL) | NF-kB SEAP reporter activity [1, 3] | NF-kB SEAP reporter activity [1, 4] | NF-kB SEAP reporter activity [1, 5] | NF-kB SEAP reporter activity ([2]; agonist: Imiquimod (TLR7) […]) | NF-kB SEAP reporter activity ([2]; agonist: MPLA (TLR4) […]) |
| --- | --- | --- | --- | --- | --- | --- |
| CC#CC(=O)N1CCC(n2c(=O)n(-c3ccc(Oc4ccccc4)cc3)c3c(N)ncnc32)C1.Cl (stereo not given) (library stock concentration (final ~1000-fold dilution): 10 mM) | 0.647 | 0.662 | 0.378 | 0.517 | – | – |
| CC#CC(=O)N1CCC(n2c(=O)n(-c3ccc(Oc4ccccc4)cc3)c3c(N)ncnc32)C1.Cl (stereo not given) | – | – | – | – | 0.734 | 0.814 |
| CN1CCN(c2ccc(-c3ccncc3-c3cc(F)c(O)c(F)c3)cc2)CC1 | – | – | – | – | 0.71 | 0.621 |
| CN1CCN(c2ccc(-c3ccncc3-c3cc(F)c(O)c(F)c3)cc2)CC1 (library stock concentration (final ~1000-fold dilution): 10 mM) | 0.68 | 0.462 | 0.553 | 0.601 | – | – |
| COc1ccc(-c2coc3cc(O)ccc3c2=O)cc1S(=O)(=O)O (library stock concentration (final ~1000-fold dilution): 10 mM) | 0.994 | 1.06 | 1.15 | 1 | – | – |
| COc1ccc(-c2coc3cc(O)ccc3c2=O)cc1S(=O)(=O)O | – | – | – | – | 0.962 | 1.03 |
| C=CC(=O)N1CCC(Oc2cc3c(Nc4ccc(Cl)c(Cl)c4F)ncnc3cc2OC)CC1 | – | – | – | – | 0.323 | 0.555 |
| C=CC(=O)N1CCC(Oc2cc3c(Nc4ccc(Cl)c(Cl)c4F)ncnc3cc2OC)CC1 (library stock concentration (final ~1000-fold dilution): 10 mM) | 0.256 | 0.215 | 0.187 | 0.26 | – | – |
| CC(NC(=O)C(O)C(C)C)C(=O)NC1C(=O)N(C)CCc2ccccc21 (stereo not given) | – | – | – | – | 0.775 | 1.08 |
| CC(NC(=O)C(O)C(C)C)C(=O)NC1C(=O)N(C)CCc2ccccc21 (stereo not given) (library stock concentration (final ~1000-fold dilution): 10 mM) | 1.24 | 0.905 | 1.07 | 0.882 | – | – |
| NC(=O)c1noc(C(CCCC2CCCCC2)CC(=O)NO)n1 (stereo not given) | – | – | – | – | 0.905 | 0.709 |
| NC(=O)c1noc(C(CCCC2CCCCC2)CC(=O)NO)n1 (stereo not given) (library stock concentration (final ~1000-fold dilution): 10 mM) | 0.635 | 0.558 | 0.367 | 0.209 | – | – |
| CN1CCc2nc(C(=O)NC3CC(C(=O)N(C)C)CCC3NC(=O)C(=O)Nc3ccc(Cl)cn3)sc2C1.Cc1ccc(S(=O)(=O)O)cc1.O (stereo not given) (library stock concentration (final ~1000-fold dilution): 10 mM) | 1.02 | 1.02 | 1.01 | 1.31 | – | – |
